# In all, about 110,000 compounds were measured (“z-score”: median about -0.1, highest 2% from about 2 on). Some of the results follow. Active and inactive are the calls of the source.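 The calls were made as follows: active = z-score in the third read window above 3 or below -3; inactive = the rest.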
# Molecular target: Metabotropic glutamate receptor 8 (Rattus norvegicus) (UniProt P70579)
# Assay: mGluR8 Gi/Go-coupled signaling modulation – cell-based, rat, thallium flux, HTS, primary screen (AID 488969)
# Conditions: HEK293 rat mGluR8, GIRK (G protein-gated inwardly rectifying potassium channel) thallium flux, FluoZin2; at 10 µM; stronger effect = higher value; submaximal glutamate (EC20) added with thallium
# Sequence of UniProt P70579 (P70579 whole entry, looked up): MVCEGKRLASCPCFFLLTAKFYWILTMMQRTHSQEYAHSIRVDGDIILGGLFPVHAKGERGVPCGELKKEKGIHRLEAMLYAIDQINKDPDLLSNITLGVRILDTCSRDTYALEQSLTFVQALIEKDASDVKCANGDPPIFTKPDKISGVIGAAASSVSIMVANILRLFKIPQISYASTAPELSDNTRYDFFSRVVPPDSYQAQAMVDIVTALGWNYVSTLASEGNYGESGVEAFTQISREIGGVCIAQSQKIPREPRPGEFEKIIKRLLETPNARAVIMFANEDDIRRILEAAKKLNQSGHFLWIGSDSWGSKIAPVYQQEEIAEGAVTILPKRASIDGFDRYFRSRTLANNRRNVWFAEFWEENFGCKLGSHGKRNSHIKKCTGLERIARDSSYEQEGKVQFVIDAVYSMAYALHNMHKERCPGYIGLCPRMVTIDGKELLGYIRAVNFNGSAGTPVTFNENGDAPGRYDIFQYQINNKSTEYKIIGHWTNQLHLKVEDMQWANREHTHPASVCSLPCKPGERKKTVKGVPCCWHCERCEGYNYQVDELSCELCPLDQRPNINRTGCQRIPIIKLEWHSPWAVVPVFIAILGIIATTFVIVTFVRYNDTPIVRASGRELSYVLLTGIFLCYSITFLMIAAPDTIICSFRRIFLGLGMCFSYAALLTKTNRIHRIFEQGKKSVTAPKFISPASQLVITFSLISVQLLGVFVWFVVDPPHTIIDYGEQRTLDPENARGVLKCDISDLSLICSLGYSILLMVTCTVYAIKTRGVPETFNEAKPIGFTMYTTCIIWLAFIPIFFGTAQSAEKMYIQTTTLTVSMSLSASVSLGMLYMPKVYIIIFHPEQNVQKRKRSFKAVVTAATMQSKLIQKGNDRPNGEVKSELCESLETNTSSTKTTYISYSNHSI
row,SMILES,z-score
1,CC(=O)N1CCN(C(=S)c2ccc(-c3ccc(Cl)cc3)o2)CC1,-0.00435
2,Cc1cccc(-c2cc3nc4c(c(N5CCC6(CC5)OCCO6)n3n2)CCCC4)c1,0.391
3,C/C(=N\Nc1nc2ccccc2s1)c1ccc2c(c1)OCO2,-0.286
4,CSc1cccc(NC(=O)CN(c2ccc(C)cc2C)S(C)(=O)=O)c1,active: 3.01
5,O=C(NC1CCCCC1)C(c1ccco1)N(C(=O)C(F)(F)F)C1CC1 (stereo not given),-0.066
6,Cc1ccc(C(=O)c2ccccc2C(=O)O)c(O)c1,0.0184
7,COC(=O)c1cc2ccccc2oc1=O,-0.0937
8,COc1cccc(N(C(C)=O)c2nc(C)cc(C)c2C#N)c1,-0.258
9,Cn1c(SCC(N)=O)nnc1-c1ccccc1,0.403
10,O=C1CN(c2ccc(Cl)cc2)C2(CCCCC2)S1,-0.106
11,Nc1nc(N2CCCCC2)nc(N2CCCCC2)n1,-0.226
12,CC1(C)SCC2C(=O)N3C(CSC3(C)C)C(=O)N21 (stereo not given),-0.292
13,COCCCNC(=O)C1CC(=O)N(CCc2ccccc2)C1 (stereo not given),-0.202
14,CNC(=O)c1cc(S(=O)(=O)N(C)C)ccc1Cl,-0.308
15,COc1cccc(CNC(=O)C2CCN(S(=O)(=O)c3ccc(F)cc3)CC2)c1,-0.472
16,Cc1cc2cc3c(N)[nH]nc3nc2cc1C,-0.232
17,O=C(N/N=C1\CCCc2ccccc21)C(O)c1ccccc1 (stereo not given),0.283
18,Oc1csc(Cc2nc(-c3ccc(-c4ccccc4)cc3)cs2)n1,-0.229
19,CCOC(=O)C(=Cc1ccc(OCc2ccc([N+](=O)[O-])cc2)c(OC)c1)C(=O)OCC,-0.114
20,O=C(c1ccc(NS(=O)(=O)c2cccc3cccnc23)cc1)N1CCOCC1,0.74
21,C=CCn1c(SCC(=O)NCc2ccco2)nc2sc3c(c2c1=O)CCCCC3,0.0377
22,COc1ccc(NC(=O)N2CCN(CCC#N)CC2)cc1,-0.122
23,Cc1cccn2c(=O)c(/C=C(\C#N)C(=O)NC3CCS(=O)(=O)C3)c(N3CCC(C)CC3)nc12 (stereo not given),-0.0747

row,SMILES,z-score
1,Cc1cc2cc(CCNC(=O)CC(C)C)c(=O)[nH]c2cc1C,-0.854
2,COc1ccc2nc(N3CCCC3)[nH]c2c1,-0.0525
3,COc1cc(OC)nc(Oc2ccccc2C(=O)Oc2ccc(F)cc2Cl)n1,-0.428
4,O=C1N(c2ccc(Cl)cc2)C(c2ccc(Cl)cc2)N2CCCN12 (stereo not given),-0.362
5,Cc1cc(NC(=O)c2ccc(S(=O)(=O)N3CCOCC3)cc2)nc2c1c(=O)oc1ccccc12,-0.153
6,CC(C)OC(=O)c1c(F)c(F)c(N2CCOCC2)c(F)c1F,0.337
7,O=C(NC(=S)N1CCCc2ccccc21)c1ccccc1,active: 4.54
8,COc1ccccc1C(=O)N1CCN(c2cccc(Cl)c2)CC1,0.229
9,COc1ccc(OC)c(NC(=O)[C@H]2CC=CC[C@H]2C(=O)O)c1,-0.0282
10,CCOC(=O)c1nn(-c2ccc(C)cc2)c(C)c1C(C)=O,0.0525
11,CC1=CCC(C(C)(C)NC(=O)c2ccccc2)C/C1=N\O (stereo not given),0.125
12,C1=C(c2ccccc2)Nc2nnnn2C1,-0.0303
13,COc1ccc(Br)cc1CNC(=O)Nc1cccs1,1.49
14,O=C(NNC(=O)c1cccnc1)Nc1ccc(Cl)c(Cl)c1,-0.192
15,COc1ccc(/C(C)=N/NC(=O)Cc2c(C)nc(C)[nH]c2=O)cc1,-0.151
16,COc1cccc(CNC(=O)CN(C)S(=O)(=O)c2cnc[nH]2)c1,1.34
17,CCOc1cc(C(=O)Nc2ccc3c(c2)OCO3)ccc1OC(F)F,0.487
18,Cn1nc(-c2ccc(Cl)cc2)c2cc(C(=O)NCCCN3CCCC3)sc21,0.212
19,Cc1nn(C)cc1NC(=O)CC12CC3CC(CC(C3)C1)C2,-0.0159
20,Fc1cccc(NCc2cn3ccccc3n2)c1,0.0674
21,O=C(NC(=O)c1ccccc1)NC1(C(F)(F)F)OCCO1,0.718
22,O=C(CC1Sc2ccccc2NC1=O)Nc1ccccc1[N+](=O)[O-] (stereo not given),-0.202
23,CCOC(=O)c1sc(NC(=O)CSc2nc(C)cc(-c3ccccc3)n2)c(C#N)c1C,-0.169

row,SMILES,z-score
1,COC(=O)Nc1nnc(Cc2ccc(OC)cc2)s1,-0.342
2,Cc1ccc(C(C)C)cc1OCCOCCN1CCCC1,0.0157
3,CCOc1ccccc1NC(=O)COC(=O)CN(C)S(=O)(=O)c1ccc(C)cc1,-0.714
4,CC(C)c1ccc(C(=O)N2CCN(CCO)CC2)cc1,-0.0351
5,O=C(N/N=C/c1cnc2ccccc2n1)c1cccc(F)c1,0.223
6,Cc1cc(C)n2c(SC/C(O)=C(\C#N)c3nc4ccccc4[nH]3)nnc2n1,0.166
7,CC1CC(C(F)(F)F)n2ncnc2N1 (stereo not given),0.187
8,CCC(=O)Nc1cccc(NC(=O)c2ccc(C)c([N+](=O)[O-])c2)c1,-0.296
9,CC1(C)CC(=O)C=C(Nc2ccccn2)C1,-0.035
10,CCN(CC)c1ccc(CNC23CN4CN(CN(C4)C2)C3)cc1,0.0209
11,COc1ccc(C(=O)SC2=NCCS2)cc1,0.159
12,CN(CC(=O)Nc1cccc2c1CCCC2)S(=O)(=O)c1ccc(Cl)cc1,-0.214
13,O=C(c1ccccc1)N1CCN(CC#Cc2ccccc2)CC1,-0.575
14,O=C(CCSCCC(=O)Nc1ccccc1F)Nc1ccccc1F,-0.0512
15,O=C(CSc1nnc(Cc2ccccc2)n1-c1ccc(Cl)cc1)N1CCOCC1,-0.408
16,O=C1C2C3C=CC(CO)(O3)C2C(=O)N1c1ccc(-c2ccccc2)cc1 (stereo not given),-0.187
17,CCOC(=O)CN1C(=O)S/C(=C/c2ccc(N3CCCCC3)o2)C1=O,-0.277
18,O=C(Nc1ccc(N2CCN(Cc3ccccc3)CC2)cc1)c1cccnc1,-0.204
19,CCn1c(-c2cccnc2Cl)nc2ccccc21,-0.102
20,O=C(COC(=O)CSc1cccc2cccc(Cl)c12)Nc1ncc(C(F)(F)F)cc1Cl,-0.127
21,CSc1nc(N)c2c3c(sc2n1)COC(C(C)C)C3 (stereo not given),-0.112
22,COc1nc2c(C)cccc2cc1-c1noc(-c2ccco2)n1,-0.0947
23,CC(C)COC(=O)C(N)C(C(=O)OCC(C)C)c1ccccc1 (stereo not given),-0.36

row,SMILES,z-score
1,COc1ccc(CN2CC(C(=O)NCCc3ccc(C)cc3)CC2=O)cc1 (stereo not given),0.173
2,CCn1c2ccccc2c2cc(NC(=O)CC(C)=O)ccc21,-0.32
3,Cc1noc(C)c1C(=O)Nc1sc(C)c(-c2ccccc2)c1C#N,-0.541
4,CC(C)CC(=O)OCC(=O)Nc1ccccc1Sc1ccccc1,-0.214
5,COc1cc(-c2nnc(SCC(=O)N3CCCC3)o2)cc(OC)c1OC,2.2
6,c1ccc2c(Oc3ccc4c(c3)OCO4)nncc2c1,-0.0366
7,COc1ccc(NC(=O)NC2(C(=O)N3CCCCCC3)CCCCC2)cc1,-0.0954
8,CNc1nc(SCc2ccccc2Cl)nc2c1CCCC2,-0.358
9,Cc1ccc(C(=O)NCc2nnc(SCC(=O)Nc3sc4c(c3C#N)CCCC4)n2C)cc1,0.525
10,Cc1ccc(-n2cnc3cc(NCc4cccs4)ccc32)cc1,-0.548
11,CC(=O)Nc1cnc2ccccc2n1,-0.46
12,Cc1c(Cl)cccc1NC(=O)c1nc(C)n(-c2cc(OC(C)C)c(Cl)cc2Cl)n1,-0.121
13,CC1CN(c2ncnc3c2cnn3-c2ccc(Cl)cc2)CC(C)O1 (stereo not given),-0.335
14,CCOC(=O)c1sc(C)c2c(=O)n(Cc3ccc(Cl)cc3)c(C)nc12,-0.425
15,COc1ccc(NC2=NC(=S)N(c3ccc(C)cc3)C23CCCCC3)cc1,0.796
16,COC(=O)C(C)(C)ONC(=O)Nc1ccc(C)cc1,-0.18
17,COc1cccc(OC)c1OCCNC(C)(C)C,-0.0552
18,CCN(CC)c1ccc(C2C3CCCCC3(O)CCN2C(=O)c2cccs2)cc1 (stereo not given),-0.585
19,Cc1nc2ccc(Cl)cc2c(-c2ccccc2F)c1CC(=O)O,-0.39
20,Cc1cc(C)n(CC(=O)N/N=C/c2cccs2)n1,-0.0134
21,Cc1ccc[n+](-c2[nH]c(=O)sc2/C=N/NC(=O)c2ccccc2[O-])c1,-0.2
22,CCOC(=O)N1CCN(c2nc(-c3cccc(OC)c3)cc(C(F)(F)F)n2)CC1,0.0804
23,CCN1C(=O)CSc2ccc(C(=O)NCc3ccccc3OC)cc21,-0.32

row,SMILES,z-score
1,Cc1cc(S(=O)(=O)NC2CCCC2)ccc1F,0.0251
2,COC(=O)c1c(-c2ccc(C)cc2)csc1NC(=O)C1CC=CCC1C(=O)O (stereo not given),-0.421
3,COc1cc(/C=N/OCC(=O)Nc2ccc(OC(F)F)cc2)ccc1OCc1ccccc1,-0.0267
4,O=C(CSc1ccc(-c2ccccc2)nn1)NCc1ccco1,0.457
5,CNC(=O)COC(=O)c1[nH]c(C)c(C(C)=O)c1C,-0.133
6,N#Cc1c(N)c(C(=O)c2ccccc2)n2c1CCCC2,-0.142
7,COCCn1c(SCC(=O)Nc2ccc3c(c2)CCC3)nc2ccccc2c1=O,-0.106
8,NC1=C([N+](=O)[O-])C(c2ccc(F)cc2)C2=C(CCCC2=O)O1 (stereo not given),-0.338
9,C/C(=N\NC(=O)CC#N)c1cc2ccccc2oc1=O,-0.108
10,Cc1ccc(-n2ncc3c(NCc4ccc5c(c4)OCO5)ncnc32)c(C)c1,-1.5
11,Cc1sc2ncnc(OCC(=O)NCc3cccs3)c2c1C,-1.78
12,COc1ccc(/C=N/NC(=O)C(=O)/C=C2\NC3(CCCC3)Cc3ccccc32)cc1,0.0973
13,Cc1ccc(NC(=O)Cc2nnc(SCC(=O)Nc3ccccc3)n2C)cc1,-0.164
14,Cc1ccc(N(C(C)C(=O)N2CCCCC2)S(C)(=O)=O)cc1C (stereo not given),-0.597
15,Cc1ccc(O)c(C2=Nc3ccccc3N=C(c3ccc([N+](=O)[O-])cc3)C2)c1,-0.258
16,CN1CC2(Cc3c1ccc1ccccc31)C(=O)OC(C)(C)OC2=O,-0.196
17,COc1ccc(NC(=S)Nc2ccc(Oc3ccccc3)cc2)cc1,-0.309
18,CC(C)CC(=O)NC(NC(=S)Nc1sc2c(c1C#N)CCCC2)C(Cl)(Cl)Cl (stereo not given),-0.307
19,Cc1cc2oc(=O)cc(CN3CCN(Cc4ccccc4)CC3)c2cc1Cl,0.124
20,CC(=O)Nc1nc(CCC(C)C)cc2c1c(=O)oc1ccccc12,0.573
21,O=c1c2ccccc2nc(-c2ccccc2)n1Cc1ccc(Cl)cc1,-0.405
22,CC1(C)CC(=O)C/C(=N\NC(=O)Cc2ccccc2)C1,-0.224
23,Cc1ccc(S(=O)(=O)N2CCN(CC(=O)NC3CCCc4ccccc43)CC2)c(C)c1 (stereo not given),-0.116

# Source: PubChem BioAssay AID488969 (Vanderbilt High Throughput Screening Facility, 2010)
